Reference: PubChem BioAssay (NCI)
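Values below derive from 48-hour exposures of cells grown in 96-well plates, with endpoints linearly interpolated between the two concentrations bracketing the appropriate inhibition level. Here, GI50 denotes the concentration required for 50% inhibition of growth. TGI denotes the concentration required for complete inhibition of growth.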

system: NCI-H322M lung; experiment: NCI tumour cell line growth inhibition, 48 h

Q: With `COP(=O)(OC)C(=NCc1ccccc1)NNc1ccc([N+](=O)[O-])cc1` as the compound, how does the TGI read?
A: > 100 µM

Q: How did the TGI turn out when `CC(=O)Nc1ccc(/C=N\N2C(=O)c3ccccc3C2=O)cc1` was run?
A: > 100 µM

Q: For `CC(O)(/C=C/c1ccccc1)P(=O)(O)c1ccccc1` (stereo unspecified), which TGI is on record?
A: > 100 µM

Q: Which TGI does the source give for `CN(C)CCCNc1ncnc2nc[nH]c12` here?
A: > 100 µM

Q: `Cc1nn(-c2ccccc2)c2c1CC(=O)Nc1ccccc1-2` was tested. Which GI50 did it give?
A: 0.427 µM

Q: And the TGI?
A: > 100 µM

Q: With `Cc1cc(OCc2nn(CN3CCN(C)CC3)c(=S)n2/N=C/c2ccc(-c3ccc(Cl)cc3Cl)o2)ccc1Cl` as the compound, how does the TGI read?
A: > 100 µM

Q: Which GI50 does the source give for `COC(=O)c1cc(-c2cc(OC)c(OC)c(OC)c2)[nH]c1N/N=C/c1c(Cl)cccc1Cl` here?
A: 4.63 µM

Q: And the TGI?
A: > 69.7 µM

Q: For `N#CCC(=O)c1cc(OCc2cc(OCc3ccc(Br)cc3)cc(OCc3ccc(Br)cc3)c2)cc(OCc2cc(OCc3ccc(Br)cc3)cc(OCc3ccc(Br)cc3)c2)c1`, which TGI is on record?
A: > 100 µM

Q: Which TGI does the source give for `O=c1[nH]nc2ccccc2c1Cl` here?
A: 24.8 µM

Q: How did the TGI turn out when `COc1ccc(N=Nc2ccc3oc(=O)c(C(=O)Nc4ccccc4)cc3c2)cc1` was run?
A: > 10 µM

Q: For `COc1cc(C(O)c2nc3ccccc3s2)cc(OC)c1OC` (stereo unspecified), which GI50 is on record?
A: > 100 µM

Q: And the TGI?
A: > 100 µM

Q: How did the TGI turn out when `Cc1cccc2c(=O)c3c(O)cc(O)cc3[nH]c12` was run?
A: > 10 µM

Q: For `O=C1CC(c2ccc3c(c2)OCO3)Nc2cc3c(cc21)OCO3` (stereo unspecified), which GI50 is on record?
A: 0.97 µM

Q: What about the TGI of the same compound?
A: > 100 µM

Q: With `Nc1c(Br)c(=O)[nH]c(=O)n1COCCO` as the compound, how does the TGI read?
A: > 100 µM

Q: How did the TGI turn out when `O=c1c2cc(Br)ccc2nc(-c2ccccc2Cl)n1NCC1(O)OCC(O)C(O)C1O` (stereo unspecified) was run?
A: > 100 µM

Q: For `COc1cc(-c2c(C#N)c(N)c(C#N)c3c2COc2ccccc2-3)cc(OC)c1OC`, which TGI is on record?
A: > 100 µM

Q: `CCc1cccc2c3c(sc12)C(c1ccc(Cl)cc1)C(C#N)=C(N)O3` (stereo unspecified) was tested. Which GI50 did it give?
A: 1.36 µM

Q: What about the TGI of the same compound?
A: 18.3 µM

Q: How did the TGI turn out when `Nc1ccn(CCO)c(=O)n1` was run?
A: > 100 µM

Q: With `O=C(c1ccccc1)[C@H]1Nc2ccc(Cl)cc2[C@H]2OCCC[C@@H]12` as the compound, how does the TGI read?
A: 53.6 µM

Q: How did the TGI turn out when `FC(F)(F)C(C1=NC(C(F)(F)F)(C(F)(F)F)N=C(N2CCOCC2)O1)C(F)(F)F` was run?
A: > 100 µM

Q: For `[C-]#[O+].[C-]#[O+].[C-]#[O+].[C-]#[O+].[Ir].[Ir].[O-]c1ccc2ccccc2c1C=Nc1ccc(N=Cc2c([O-])ccc3ccccc23)cc1`, which GI50 is on record?
A: > 100 µM

Q: And the TGI?
A: > 100 µM

Q: With `O=C(N/N=C/c1ccc([N+](=O)[O-])cc1)c1cccc2nc3ccccc3nc12` as the compound, how does the TGI read?
A: > 74.2 µM

Q: Which TGI does the source give for `Nc1ccc2nc3ccc(N)cc3[n+](-c3ccccc3)c2c1` here?
A: > 100 µM

Q: Which TGI does the source give for `COC(=O)[C@@H](O)[C@]1(C(=O)OC)C2O[C@@H](OC)[C@@H]1CCCCCC[C@H]2O` here?
A: > 100 µM

Q: `N#C/C(=C1\NN=C(N)C(c2ccc(Cl)cc2)=C1O)c1ccc(Cl)cc1` was tested. Which TGI did it give?
A: > 100 µM

Q: Which TGI does the source give for `C=C1CC2(C[C@@H](c3ccccc3)O[C@@H](c3ccccc3)C2)OC1=O` (stereo partly specified) here?
A: 16.6 µM

Q: Which TGI does the source give for `Cc1ccc(NC(=O)c2cc3ccccc3c(N=Nc3ccccc3O)c2O)c(C)c1` here?
A: > 100 µM

Q: With `CC(=O)NCCSC(=O)c1ccccc1` as the compound, how does the TGI read?
A: 3.68 µM

Q: With `O=Cc1cn(Cc2cccc(Cl)c2)c2ccccc12` as the compound, how does the GI50 read?
A: 9.45 µM

Q: And the TGI?
A: 28.8 µM

Q: How did the TGI turn out when `CN(C(=O)c1ccc(Cl)cc1)C(=S)N1CCN(c2ccccn2)CC1` was run?
A: > 100 µM

Q: Which TGI does the source give for `NNC(=O)CCC(=O)Nc1cc(Cl)c(Cl)cc1Cl` here?
A: > 100 µM

Q: How did the TGI turn out when `COc1ccc2oc(=O)cc(C)c2c1` was run?
A: > 100 µM

Q: Which GI50 does the source give for `CCN(CCNc1ccc(C)c2sc3cc(Cl)ccc3c(=O)c12)CC(C)O` (stereo unspecified) here?
A: 1.66 µM

Q: What about the TGI of the same compound?
A: 3.95 µM

Q: `COCC1N=C(c2cc(OC)c(OC)c(OC)c2-c2cc3c(cc2C2OCCCO2)OCO3)O[C@H]1c1ccccc1` (stereo partly specified) was tested. Which TGI did it give?
A: > 100 µM

Q: For `CS(=O)(=O)c1ccc(-c2cnc(N)c(C(=O)Nc3ccccc3)n2)cc1`, which GI50 is on record?
A: 8.37 µM

Q: What about the TGI of the same compound?
A: > 100 µM

Q: How did the GI50 turn out when `O=C(CCCCCCSc1nc(-c2ccccc2)cc(-c2ccccc2)n1)NO` was run?
A: 2.41 µM

Q: And the TGI?
A: 10.8 µM
